According to ChEMBL document CHEMBL4888484, “Replenishing the malaria drug discovery pipeline: Screening and hit evaluation of the MMV Hit Generation Library 1 (HGL1) against asexual blood stage Plasmodium falciparum ,using a nano luciferase reporter read-out” (2022):
The campaign covered roughly 150,000 compounds. About 540 (0.36%) showed an effect of 50% or more. Some of the results follow.

test system: Plasmodium falciparum; assay: Primary screen in NF54 nanoGlo assay, in single point, at 2uM, 72h; a lower Z score goes with more inhibition; assay type: functional, Erythrocyte; conditions: timepoint 72 hour

SMILES | % Inhibition [%] | Z score
COc1ccc2oc(-c3cccc(NC(=O)c4cccs4)c3)nc2c1 | -8 | 0.94
O=C(c1cnoc1-c1ccccc1)N1C[C@@H]2CC[C@H]1CN(C1CCOCC1)C2 | -8 | 1.41
COc1ccc(CC(=O)Nc2ccc(OC)c(N3CCCN(Cc4ccc(OC)cc4)C3=O)c2)cc1 | 11 | -2.14
CC1(C)C[C@@H](NC(=O)c2ocnc2-c2ccccc2)CCS1(=O)=O | -1 | 0.17
Cc1nc(CN(C)Cc2cn3ccccc3c2C#N)cs1 | -13 | 1.35
CC1(C)CC(N2C(=O)CCC2CCNCCOc2ccc(F)cc2)CCO1 (stereo not drawn) | -7 | 0.94
COCCn1c(N)c(C(=O)CN(C)CCOc2ccc(Br)cc2)c(=O)[nH]c1=O | -12 | 1.69
CCc1cc(-c2cccc(C(=O)NCc3n[nH]c(N)n3)c2)nc(N(C)C)n1 | -1 | 0.08
O=C(c1ccc(OC2CCOCC2)cc1)N1CC[C@H](n2cccn2)C1 | -14 | 1.58
CCOc1ccc(NC(=O)c2cccn2-c2cccnc2)cc1 | -17 | 1.72
COC(=O)[C@@H](OC(=O)c1cc(C)no1)C1CC1 | -7 | 0.63
CC(C)C[C@](C)(NCCOc1ccccc1F)C(N)=O | -4 | 0.53
CN(CC(=O)Nc1ccccc1Cl)CC(=O)Nc1ccccc1Cc1ccccc1 | 5 | -0.87
c1cc(-c2nc(-c3cnccn3)no2)cc(-n2cncn2)c1 | -16 | 1.78
CC(C)c1csc([C@@H]2CC(=O)Nc3cc(N4CCCC4=O)ccc32)n1 | -13 | 1.82
CC(C)(C)OC(=O)NC[C@H]1CCCN1CC(F)F | -5 | 0.95
COc1cc2c(cc1CNC(=O)Nc1cnn(C)c1C)CCC2 | -5 | 0.69
CCOC(=O)c1c(C)c(CCC(=O)N2CCN(c3ccccn3)CC2)c(C)n1C | -7 | 1.27
CCc1nnc(NCC[C@@H]2C(=O)Nc3ccccc32)nc1CC | -18 | 1.81
O=C(Nc1ccc(CN2CCOCC2)cc1)C(c1ccccc1)c1ccccc1 | 0 | 0.07
CCCc1[nH]nc(-c2ccc(C(F)(F)F)cc2)c1NC(=O)c1ccccc1OC | 0 | -0.01

SMILES | % Inhibition [%] | Z score
O=C(c1cc(C2CC2)nc2ccccc12)N1CCOC[C@@H](O)C1 | 2 | -0.23
C[C@@H](c1ccccn1)N1CCOC(C)(C)C1 | -9 | 1.24
Cc1nc(CNC(=O)c2nc3ccccc3[nH]c2=O)cs1 | 5 | -0.75
O=S1(=O)CCC(Nc2ccc(F)cc2S(=O)(=O)C(F)(F)F)CC1 | 2 | -0.18
COc1cc2c(cc1OC)CC(=O)N(CC(=O)N[C@H]1CC(=O)N(C(C)(C)C)C1)C=C2 | 1 | -0.19
Cc1ccc([C@H](C)NC(=O)CN2C(=O)C3(CCNCC3)Nc3ccccc32)cc1 | -3 | 0.42
OC[C@H]1CCCN(CCNCc2ccc(F)c(F)c2)C1 | -8 | 1.44
O=C(Cn1ccccc1=O)N[C@H]1COCC[C@@H]1Oc1ccc(CO)cc1 | -7 | 0.9
C[C@H](O)CNc1cncc(OC2CCCCC2)n1 | -11 | 2.14
Cc1nc(CC(=O)N2Cc3[nH]c4ccccc4c3C[C@H]2C(=O)O)cs1 | -23 | 2.04
C[C@H]1CN(C(=O)c2ncccc2O)C(C)(C)CO1 | -7 | 1.25
Fc1ccc(F)c(CN2CC[C@H](c3nn[nH]n3)C2)c1 | -7 | 1.17
Cc1cc(C(=O)N2CCC[C@@H](NC(=O)c3cc(C#N)ccn3)C2)on1 | -11 | 1.46
CN1CCN(Cc2noc([C@H]3CCOC(C)(C)C3)n2)CC1 | -8 | 1.57
Cc1ncsc1C(=O)N(Cc1ccccn1)c1ccc(F)cc1 | 6 | -0.67
C[C@@H]1CN(C(=O)c2ccc(C(N)=O)cc2)C[C@H](C)N1C | -5 | 0.93
Cc1cc(N)nc(C)c1-c1cccc(C(=O)NCCc2ncnn2C)c1 | -10 | 1.46
CCn1ccnc1C(=O)NC[C@H]1CCOc2ccccc21 | 4 | -0.76
COc1ccc(C(=O)c2cnc3ccc(F)cc3c2N2CCN(Cc3ccccc3)CC2)cc1 | -3 | 0.43
COc1ccc(CN2C(=O)N(Cc3ccc(F)cc3Cl)c3ccccc3S2(=O)=O)cc1 | -1 | 0.13
COc1ccc(CN2CC[C@H]2C(=O)Nc2ncn(C(C)C)n2)cc1 | -7 | 1.25

SMILES | % Inhibition [%] | Z score
OC1CCN(c2nc3cc(F)ccc3cc2CNC[C@H]2CCCO2)CC1 | -6 | 1.23
CNc1nc(CN(C)C[C@H]2COCCO2)cs1 | -14 | 1.74
CCNC(=O)c1nn(Cc2ccccc2)c2c1C[C@@H](N1CCN(C)CC1)CC2 | 0 | -0.05
CCc1cc2c3c([nH]c2cc1S(=O)(=O)NCc1ccc(C)cc1)CCCC3=O | -7 | 1.34
Cc1ccc(C(=O)O)c(N2CCC[C@H](C#N)C2)n1 | -18 | 2.66
O=C1N(CCc2ccccc2)CCC[C@@]1(O)CNC1CCCCC1 | -11 | 1.71
COc1cc(C(=O)NCC2CCN(Cc3ncc[nH]3)CC2)ccn1 | -4 | 0.75
Cc1ccccc1CC(=O)N[C@@H](CCO)C(C)(C)C | -10 | 1.32
Cc1nc2c(s1)CN([C@H](C#N)c1cccs1)CC2 | -7 | 0.96
Cc1nc(C(=O)NCC(C)(C)O)cs1 | -8 | 1.5
CN(C)C(=O)[C@@H]1C[C@@H](Oc2ccncc2)CN1Cc1cccnc1 | -5 | 0.71
COC(=O)c1cnc(NCCc2c[nH]c3ccccc23)c(S(=O)(=O)N2CCOCC2)c1 | 4 | -0.73
CCCN1CCN(Cc2nccn2CC)[C@H]2CS(=O)(=O)C[C@H]21 | -8 | 0.74
CCCCc1ccc(N(C)C(=O)CCN)cc1 | -9 | 1.12
COc1ccc(NC(=O)CCn2ccccc2=O)cc1OC(F)F | 0 | -0.01
CCOC(=O)N1CCC2(CC1)C[C@@H](c1ccccc1)C(=O)N(CC)C2 | -16 | 2.85
COC(=O)[C@@H]1CCCN1C(=O)C(c1ccccc1)c1ccccc1 | 4 | -0.54
Cc1nc(C)c([C@H](C)NC(=O)NC2CCC(O)CC2)s1 (stereo partly drawn) | -7 | 0.87
Cc1nc(NC(=O)NC2CC2c2ccccc2)oc1C (stereo not drawn) | 4 | -0.56
Cc1cc(C)n(CCC(=O)NCCc2nc(-c3cccnc3)n[nH]2)c(=O)n1 | -8 | 1.45
C[C@@H](Cc1cnccn1)Nc1nc(C2CCCC2)nc2c1CNC2 | -8 | 1.5

SMILES | % Inhibition [%] | Z score
Cc1ccnc([C@@H](NC(=O)c2cccn2C2CC2)C2CC2)c1 | -5 | 0.7
Cc1cccc(-n2cc(-c3ccccc3)nc2NC(=O)CN(C[C@H]2CCCO2)C(=O)c2ccccc2C)c1 | -5 | 0.67
COC(=O)[C@H](C)N1CCN(CC2CC2)CC1 | 2 | -0.26
Cc1cc(C(=O)N2CC[S@@+]([O-])C(C)(C)C2)oc1C | -3 | 0.46
COc1ccc(Nc2nc(N3CCOCC3)nc(N3CCC(C)CC3)n2)cc1 | 16 | -2.17
CCOc1ccc(Cl)cc1CN(C)c1cc(C2CC(O)C2)nc(N)n1 (stereo not drawn) | -11 | 1.46
COc1cc(-c2ccc(-c3cn[nH]c3)cc2)ccc1O | -8 | 1.16
CCn1cc(S(=O)(=O)N(C)Cc2noc(C3CC3)n2)cn1 | -9 | 1.01
Cc1cccc(CN2CC(N(Cc3cccnc3)S(C)(=O)=O)C2)c1 | -1 | 0.12
CCOCCOc1nc(-c2ccc3c(c2)OCO3)n(-c2ccc(NC(=O)c3c(OC)cccc3OC)cc2)n1 | 4 | -0.63
CN(C)C(=O)c1ccccc1CCCOCc1ccccc1 | -1 | 0.2
O=C(c1nnn2c1c(=O)[nH]c1cc(F)ccc12)N1CCCCCC1 | 0 | -0.07
CC1CCC(N2CC(=O)N(CCN3CCOCC3)[C@@H](c3cccnc3)C2=O)CC1 (stereo partly drawn) | 33 | -3.78
CC(=O)c1ccc2c(c1)N(Cc1ccc(C(=O)NCc3ccccc3)o1)C(=O)CO2 | 0 | -0.02
C[C@@H](C(=O)NCc1ccc2c(c1)OCO2)n1cccn1 | -5 | 0.86
CC(C)C(=O)N1CCC[C@H](NS(=O)(=O)c2ccnn2C(C)C)C1 | -2 | 0.31
COc1cccc(Cn2ncnc2[C@H](C)n2cc(Cl)cn2)c1 | -2 | 0.35
Nc1ccc2c(c1)S(=O)(=O)c1cc(N)ccc1C2 | -2 | 0.25
CC(C(=O)N1CCCc2ccccc21)N1CCCC(c2nncn2C2CC2)C1 (stereo not drawn) | -7 | 0.83
Cc1nnc(-c2cc(C(C)C)n(-c3ccc(C(=O)NC4Cc5ccccc5C4)cc3)n2)o1 | -4 | 0.56
CS(=O)(=O)CCn1cccc(NC(=O)C2CC3CCC2C3)c1=O (stereo not drawn) | 5 | -0.72
